# This is one part of the list.
# B1: CLL-1 (Homo sapiens) (protein)
# chain: MWIDFFTYSSMSEEVTYADLQFQNSSEMEKIPEIGKFGEKAPPAPSHVWRPAALFLTLLCLLLLIGLGVLASMFHVTLKIEMKKMNKLQNISEELQRNISLQLMSNMNISNKIRNLSTTLQTIATKLCRELYSKEQEHKCKPCPRRWIWHKDSCYFLSDDVQTWQESKMACAAQNASLLKINNKNALEFIKSQSRSYDYWLGLSPEEDSTRGMRVDNIINSSAWVIRNAPDLNNMYCGYINRLYVQYYHCTYKKRMICEKMANPVQLGSTYFREA
# Columns and labels:
# Assay in all cases: glycan array binding signal (z-score within array); higher = stronger binding
# Settings in all cases: glycan notation: IUPAC condensed, linker removed
# [1] = target: Neu5Ac(a2-3)Gal(b1-3)GalNAc(b1-3)Gal(b1-4)GlcNAc
# Procedure, shortened: (§1)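 Glycan array binding is given as a within-array Z-score, which can be read as non-binding when negative. The arrays, 3228 of them, came from the Consortium for Functional Glycomics database and were retained only where the protein sequence was available. Z-scores were averaged across arrays of the same protein sequence at different concentrations or buffers and across linkers.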
# [2] = target: Neu5Ac(a2-3)Gal(b1-3)GalNAc(b1-4)[Neu5Ac(a2-3)]Gal(b1-4)Glc
# Procedure, shortened: as §1
# [3] = target: Neu5Ac(a2-3)Gal(b1-3)GalNAc6S
# Procedure, shortened: as §1
# [4] = target: Neu5Ac(a2-3)Gal(b1-3)GlcNAc
# Procedure, shortened: as §1
# [5] = target: Neu5Ac(a2-3)Gal(b1-3)GlcNAc6S
# Procedure, shortened: as §1
# [6] = target: Neu5Ac(a2-3)Gal(b1-3)[Fuc(a1-4)]GlcNAc
# Procedure, shortened: as §1
# [7] = target: Neu5Ac(a2-3)Gal(b1-3)[Fuc(a1-4)]GlcNAc(b1-3)Gal(b1-4)[Fuc(a1-3)]GlcNAc
# Procedure, shortened: as §1
# [8] = target: Neu5Ac(a2-3)Gal(b1-3)[Neu5Ac(a2-3)Gal(b1-4)]GlcNAc
# Procedure, shortened: as §1
# [9] = target: Neu5Ac(a2-3)Gal(b1-3)[Neu5Ac(a2-6)]GalNAc
# Procedure, shortened: as §1
# Neu5Ac(a2-3)Gal(b1-4)Glc = target: Neu5Ac(a2-3)Gal(b1-4)Glc
# Procedure, shortened: as §1
# [10] = target: Neu5Ac(a2-3)Gal(b1-4)GlcNAc
# Procedure, shortened: as §1
# [11] = target: Neu5Ac(a2-3)Gal(b1-4)GlcNAc(b1-3)Gal(b1-4)GlcNAc
# Procedure, shortened: as §1
# [12] = target: Neu5Ac(a2-3)Gal(b1-4)GlcNAc(b1-3)Gal(b1-4)GlcNAc(b1-3)Gal(b1-4)GlcNAc
# Procedure, shortened: as §1
# [13] = target: Neu5Ac(a2-3)Gal(b1-4)GlcNAc(b1-3)Gal(b1-4)[Fuc(a1-3)]GlcNAc
# Procedure, shortened: as §1
# [14] = target: Neu5Ac(a2-3)Gal(b1-4)GlcNAc6S
# Procedure, shortened: as §1
# [15] = target: Neu5Ac(a2-3)Gal(b1-4)[Fuc(a1-3)]GlcNAc
# Procedure, shortened: as §1
# [16] = target: Neu5Ac(a2-3)Gal(b1-4)[Fuc(a1-3)]GlcNAc(b1-3)Gal
# Procedure, shortened: as §1
# [17] = target: Neu5Ac(a2-3)Gal(b1-4)[Fuc(a1-3)]GlcNAc(b1-3)Gal(b1-4)GlcNAc
# Procedure, shortened: as §1
# [18] = target: Neu5Ac(a2-3)Gal(b1-4)[Fuc(a1-3)]GlcNAc(b1-3)Gal(b1-4)[Fuc(a1-3)]GlcNAc(b1-3)Gal(b1-4)[Fuc(a1-3)]GlcNAc
# Procedure, shortened: as §1
# [19] = target: Neu5Ac(a2-3)Gal(b1-4)[Fuc(a1-3)]GlcNAc6S
# Procedure, shortened: as §1
# [20] = target: Neu5Ac(a2-3)Gal6S(b1-4)GlcNAc
# Procedure, shortened: as §1
# [21] = target: Neu5Ac(a2-3)Gal6S(b1-4)[Fuc(a1-3)]GlcNAc
# Procedure, shortened: as §1
# Neu5Ac(a2-3)GalNAc = target: Neu5Ac(a2-3)GalNAc
# Procedure, shortened: as §1
# [22] = target: Neu5Ac(a2-3)GalNAc(b1-4)GlcNAc
# Procedure, shortened: as §1
# [23] = target: Neu5Ac(a2-3)[GalNAc(b1-4)]Gal(b1-4)Glc
# Procedure, shortened: as §1
# [24] = target: Neu5Ac(a2-3)[GalNAc(b1-4)]Gal(b1-4)GlcNAc
# Procedure, shortened: as §1
# [25] = target: Neu5Ac(a2-3)[Neu5Ac(a2-6)]GalNAc
# Procedure, shortened: as §1
# Neu5Ac(a2-6)Gal = target: Neu5Ac(a2-6)Gal
# Procedure, shortened: as §1
# Neu5Ac(a2-6)Gal(b1-4)Glc = target: Neu5Ac(a2-6)Gal(b1-4)Glc
# Procedure, shortened: as §1
# [26] = target: Neu5Ac(a2-6)Gal(b1-4)GlcNAc
# Procedure, shortened: as §1
# [27] = target: Neu5Ac(a2-6)Gal(b1-4)GlcNAc(b1-2)Man(a1-3)[Neu5Ac(a2-6)Gal(b1-4)GlcNAc(b1-2)Man(a1-6)]Man(b1-4)GlcNAc(b1-4)GlcNAc
# Procedure, shortened: as §1
# [28] = target: Neu5Ac(a2-6)Gal(b1-4)GlcNAc(b1-3)Gal(b1-4)GlcNAc
# Procedure, shortened: as §1
# [29] = target: Neu5Ac(a2-6)Gal(b1-4)GlcNAc(b1-3)Gal(b1-4)[Fuc(a1-3)]GlcNAc(b1-3)Gal(b1-4)[Fuc(a1-3)]GlcNAc
# Procedure, shortened: as §1
# [30] = target: Neu5Ac(a2-6)Gal(b1-4)GlcNAc6S
# Procedure, shortened: as §1
# Neu5Ac(a2-6)GalNAc = target: Neu5Ac(a2-6)GalNAc
# Procedure, shortened: as §1
# [31] = target: Neu5Ac(a2-6)GalNAc(b1-4)GlcNAc
# Procedure, shortened: as §1
# Neu5Ac(a2-8)Neu5Ac = target: Neu5Ac(a2-8)Neu5Ac
# Procedure, shortened: as §1
# [32] = target: Neu5Ac(a2-8)Neu5Ac(a2-3)Gal(b1-4)Glc
# Procedure, shortened: as §1
# [33] = target: Neu5Ac(a2-8)Neu5Ac(a2-3)[GalNAc(b1-4)]Gal(b1-4)Glc
# Procedure, shortened: as §1
# [34] = target: Neu5Ac(a2-8)Neu5Ac(a2-8)Neu5Ac
# Procedure, shortened: as §1
# [35] = target: Neu5Ac(a2-8)Neu5Ac(a2-8)Neu5Ac(a2-3)Gal(b1-4)Glc
# Procedure, shortened: as §1
# [36] = target: Neu5Ac(a2-8)Neu5Ac(a2-8)Neu5Ac(a2-3)[GalNAc(b1-4)]Gal(b1-4)Glc
# Procedure, shortened: as §1
# [37] = target: Neu5Ac(a2-8)Neu5Ac(a2-8)Neu5Ac(a2-8)Neu5Ac(a2-3)[GalNAc(b1-4)]Gal(b1-4)Glc
# Procedure, shortened: as §1
# Neu5Ac(b1-6)GalNAc = target: Neu5Ac(b1-6)GalNAc
# Procedure, shortened: as §1
# [38] = target: Neu5Ac(b2-6)Gal(b1-4)GlcNAc
# Procedure, shortened: as §1
# [39] = target: Neu5Ac9Ac(a2-6)Gal(b1-4)GlcNAc
# Procedure, shortened: as §1
# [40] = target: Neu5Gc(a2-3)Gal(b1-3)GlcNAc
# Procedure, shortened: as §1
# [41] = target: Neu5Gc(a2-3)Gal(b1-3)[Fuc(a1-4)]GlcNAc
# Procedure, shortened: as §1
# Neu5Gc(a2-3)Gal(b1-4)Glc = target: Neu5Gc(a2-3)Gal(b1-4)Glc
# Procedure, shortened: as §1
# [42] = target: Neu5Gc(a2-3)Gal(b1-4)GlcNAc
# Procedure, shortened: as §1
# [43] = target: Neu5Gc(a2-3)Gal(b1-4)[Fuc(a1-3)]GlcNAc
# Procedure, shortened: as §1
# [44] = target: Neu5Gc(a2-6)Gal(b1-4)GlcNAc
# Procedure, shortened: as §1
# Neu5Gc(a2-6)GalNAc = target: Neu5Gc(a2-6)GalNAc
# Procedure, shortened: as §1
binder,measurement,setting,value
B1,glycan array binding signal (z-score),[1],-0.232
same,glycan array binding signal (z-score),[2],-0.177
same,glycan array binding signal (z-score),[3],-0.072
same,glycan array binding signal (z-score),[4],-0.166
same,glycan array binding signal (z-score),[5],-0.109
same,glycan array binding signal (z-score),[6],1.22
same,glycan array binding signal (z-score),[7],-0.143
same,glycan array binding signal (z-score),[8],-0.187
same,glycan array binding signal (z-score),[9],-0.188
same,glycan array binding signal (z-score),Neu5Ac(a2-3)Gal(b1-4)Glc,-0.159
same,glycan array binding signal (z-score),[10],-0.14
same,glycan array binding signal (z-score),[11],-0.267
same,glycan array binding signal (z-score),[12],2.45
same,glycan array binding signal (z-score),[13],-0.129
same,glycan array binding signal (z-score),[14],-0.124
same,glycan array binding signal (z-score),[15],-0.141
same,glycan array binding signal (z-score),[16],-0.209
same,glycan array binding signal (z-score),[17],-0.23
same,glycan array binding signal (z-score),[18],-0.181
same,glycan array binding signal (z-score),[19],-0.15
same,glycan array binding signal (z-score),[20],-0.159
same,glycan array binding signal (z-score),[21],-0.172
same,glycan array binding signal (z-score),Neu5Ac(a2-3)GalNAc,-0.037
same,glycan array binding signal (z-score),[22],0.114
same,glycan array binding signal (z-score),[23],-0.256
same,glycan array binding signal (z-score),[24],-0.101
same,glycan array binding signal (z-score),[25],-0.261
same,glycan array binding signal (z-score),Neu5Ac(a2-6)Gal,-0.207
same,glycan array binding signal (z-score),Neu5Ac(a2-6)Gal(b1-4)Glc,-0.221
same,glycan array binding signal (z-score),[26],-0.184
same,glycan array binding signal (z-score),[27],-0.141
same,glycan array binding signal (z-score),[28],-0.266
same,glycan array binding signal (z-score),[29],-0.136
same,glycan array binding signal (z-score),[30],0.188
same,glycan array binding signal (z-score),Neu5Ac(a2-6)GalNAc,-0.208
same,glycan array binding signal (z-score),[31],-0.17
same,glycan array binding signal (z-score),Neu5Ac(a2-8)Neu5Ac,-0.289
same,glycan array binding signal (z-score),[32],-0.168
same,glycan array binding signal (z-score),[33],-0.239
same,glycan array binding signal (z-score),[34],-0.267
same,glycan array binding signal (z-score),[35],-0.12
same,glycan array binding signal (z-score),[36],-0.211
same,glycan array binding signal (z-score),[37],-0.059
same,glycan array binding signal (z-score),Neu5Ac(b1-6)GalNAc,-0.172
same,glycan array binding signal (z-score),[38],-0.235
same,glycan array binding signal (z-score),[39],-0.216
same,glycan array binding signal (z-score),[40],-0.069
same,glycan array binding signal (z-score),[41],-0.281
same,glycan array binding signal (z-score),Neu5Gc(a2-3)Gal(b1-4)Glc,-0.229
same,glycan array binding signal (z-score),[42],-0.26
same,glycan array binding signal (z-score),[43],-0.167
same,glycan array binding signal (z-score),[44],-0.231
same,glycan array binding signal (z-score),Neu5Gc(a2-6)GalNAc,-0.107

# Source: the supplement of paper PMC8728848
